# Measurements published in PubChem BioAssay AID488969 (Vanderbilt High Throughput Screening Facility, 2010).
# Whole data set: some 110,000 compounds, median “z-score” near -0.1, cut for the highest 2% near 2. This is one part of the list. Calls of active or inactive are those of the source.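 Rule for the calls: active = z-score in the third read window above 3 or below -3; inactive = the rest.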
# Target: Metabotropic glutamate receptor 8 (Rattus norvegicus) (UniProt P70579)
# Test: mGluR8 Gi/Go-coupled signaling modulation – cell-based, rat, thallium flux, HTS, primary screen (AID 488969)
# Settings: HEK293 rat mGluR8, GIRK (G protein-gated inwardly rectifying potassium channel) thallium flux, FluoZin2; at 10 µM; stronger effect = higher value; submaximal glutamate (EC20) added with thallium
# Sequence of UniProt P70579 (P70579 whole entry, looked up): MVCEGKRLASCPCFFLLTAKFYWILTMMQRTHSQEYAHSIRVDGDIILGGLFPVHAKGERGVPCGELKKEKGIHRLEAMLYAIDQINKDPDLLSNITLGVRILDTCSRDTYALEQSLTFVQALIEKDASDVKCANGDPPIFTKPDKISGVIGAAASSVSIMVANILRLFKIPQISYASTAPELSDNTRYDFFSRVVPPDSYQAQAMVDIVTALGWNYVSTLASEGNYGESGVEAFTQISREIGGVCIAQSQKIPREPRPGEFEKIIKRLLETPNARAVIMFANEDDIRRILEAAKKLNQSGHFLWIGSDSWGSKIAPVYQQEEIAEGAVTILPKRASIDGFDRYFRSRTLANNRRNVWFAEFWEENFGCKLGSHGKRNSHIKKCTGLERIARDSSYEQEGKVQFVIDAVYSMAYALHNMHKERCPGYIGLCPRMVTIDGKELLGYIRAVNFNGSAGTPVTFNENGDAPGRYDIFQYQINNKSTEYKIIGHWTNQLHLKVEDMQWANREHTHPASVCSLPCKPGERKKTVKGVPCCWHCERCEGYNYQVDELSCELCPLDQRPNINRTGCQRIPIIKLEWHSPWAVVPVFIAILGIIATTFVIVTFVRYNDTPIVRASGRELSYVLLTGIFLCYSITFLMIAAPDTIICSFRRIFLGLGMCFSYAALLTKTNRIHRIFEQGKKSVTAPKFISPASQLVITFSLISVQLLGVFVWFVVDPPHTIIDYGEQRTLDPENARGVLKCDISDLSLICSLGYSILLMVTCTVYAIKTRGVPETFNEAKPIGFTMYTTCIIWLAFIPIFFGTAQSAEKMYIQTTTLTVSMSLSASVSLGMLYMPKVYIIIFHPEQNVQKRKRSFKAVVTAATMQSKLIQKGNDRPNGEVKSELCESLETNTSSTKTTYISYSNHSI
row,Compound,z-score
1,Cc1cc(C(=O)CSc2nc3ccccc3c(=O)[nH]2)c(C)n1C,-0.296
2,CCCCCNc1nc(NCCCO)c(C#N)c2c1CN(C)CC2,-0.528
3,Cc1cccc(C(=O)N/N=C/c2ccccn2)c1,-0.473
4,O=S(=O)(c1cccs1)N1CCCc2cccc(O)c21,-0.229
5,CCOC(=O)CCSc1nc(C)c2cc(C)ccc2n1,-0.619
6,CCOC(=O)c1csc(NC(=O)CSc2nnnn2-c2ccc3c(c2)OCCO3)n1,-0.588
7,Cc1ccc(S(=O)(=O)Nc2ccc(NC(=O)Nc3cccc(C(F)(F)F)c3)cc2)cc1,-0.0732
8,CCOC(=O)C1=C(C)NC(=S)NC1c1ccc(OC(=O)c2ccco2)cc1 (centres undefined),-0.4
9,COC(=O)c1cccc(NC(=O)c2nn(C(C)C)c(=O)c3ccccc23)c1,-0.226
10,NC(=O)C1CCN(c2nc(-c3ccccc3)nc3ccccc23)CC1,0.964
11,CC(C)c1cc(C(F)(F)F)n2nc(C(=O)Nc3ccc4c(c3)OCO4)cc2n1,active: 4.57
12,N/C(=N\OC(=O)c1ccc(Cl)c(Cl)c1)c1ccccn1,-0.312
13,Cc1ccc(/C=C(\NC(=O)c2ccc(C)cc2)c2nc(=S)[nH][nH]2)cc1,0.31
14,Cc1ccc(/C=N/n2c(C3CCCCC3)n[nH]c2=S)s1,0.644
15,COc1ccc2c(c1)C1CC(C)(NC(=O)C1S(=O)(=O)c1ccc(F)cc1)O2 (centres undefined),0.102
16,COc1cccc(C(=O)NCCN2CCOCC2)c1,-0.427
17,O=C(CCC(=O)Nc1ccccc1)NCCO,0.33
18,Cc1ccccc1-c1nc(CS(=O)CC(=O)NCCN2CCOCC2)c(C)o1 (centres undefined),-0.705
19,COc1ccccc1C(OC(=O)c1cccs1)C(=O)NCC1CCCO1 (centres undefined),-0.383
20,COc1ccc(NC(C)=O)cc1NC(=O)CSc1nnc(-c2ccccc2)n1N,0.00205
21,CC(C)c1ccc(N2CC(C(=O)Nc3nccs3)CC2=O)cc1 (centres undefined),-1.9
22,CS(=O)(=O)NCCSCc1c(Cl)cccc1Cl,-0.0833

row,Compound,z-score
1,CSc1nsc(SC)c1C(=O)NCCNS(=O)(=O)c1ccc(C)cc1,-0.3
2,O=C(CNC(=O)c1ccc(Cl)cc1Cl)OCC(=O)c1ccc2c(c1)OCCO2,-1.64
3,CN(C)c1ccc(C2C3=C(CCCC3=O)OC3=C2C(=O)CCC3)cc1,0.0253
4,Cc1cc(C)n(-c2nc3nonc3nc2Nc2cccc(C)c2C)n1,0.723
5,Cn1c(CN2CCCCC2)nc2cc(NS(=O)(=O)c3ccc(Cl)cc3)ccc21,-0.00564
6,Cc1ccc(C2CC(c3ccco3)=NN2S(C)(=O)=O)cc1 (centres undefined),0.339
7,CC1CCCC(C)N1S(=O)(=O)c1ccc(S(=O)(=O)NCCc2ccncc2)cc1 (centres undefined),-0.221
8,Cc1ccc(NC(=O)C2CC(=O)n3ncnc3N2)cc1 (centres undefined),-0.235
9,Cc1sc2nc(CSc3ccc([N+](=O)[O-])c(C(F)(F)F)c3)[nH]c(=O)c2c1C,-0.255
10,COc1ccc(C2CC(=O)N3CN(c4ccc(C)c(Cl)c4)CSC3=C2C#N)cc1 (centres undefined),-0.0211
11,CCOC(CNC(=O)CCc1c(C)nc2nc(C)nn2c1C)OCC,-0.308
12,Cc1nc2sc(C(=O)O)c(N)c2c2c1COC(C)(C)C2,-0.201
13,COc1ccc(CNC(=O)c2c(C)cc(=O)oc2C)cc1OC,-1.14
14,COc1ccc(C(=O)N/C(=C\c2cccc3ccccc23)C(=O)NCCc2c[nH]c3ccccc23)cc1OC,-1.59
15,Cc1cccc(C(=O)Nc2nccs2)c1[N+](=O)[O-],-0.0652
16,CC12CC3CC(C)(C1)CC(CN1CCOCC1)(C3)C2,-0.06
17,COc1ccc(/C=C2/SC(=O)N(CCC(=O)Nc3ccc(C)cc3)C2=O)cc1OC,-0.582
18,CCOC(=O)Cn1nnnc1CN(Cc1ccc(OC)cc1)Cc1cc2cc(C)cc(C)c2[nH]c1=O,0.139
19,Cc1ccccc1CSCCNC(=O)c1ccc(Cl)c(S(=O)(=O)N2CCOCC2)c1,-0.66
20,Cc1nc2nc(-c3cccnc3)[nH]n2c(=O)c1C,0.355
21,CC1=C(C(=O)Nc2ccc(F)cc2)C(c2ccc(C)o2)C2=C(CC(C)(C)CC2=O)N1 (centres undefined),0.288
22,COCCNC(=O)C(c1ccccc1C)N(C(=O)Cn1nnc2ccccc21)c1cccnc1 (centres undefined),-0.094

row,Compound,z-score
1,CCN1CCN(c2nc(-c3ccccn3)nc3ccccc23)CC1,-0.254
2,O=C(CN1CCN(c2ccccc2F)CC1)Nc1ccccc1F,-0.273
3,Cc1ccccc1CSCC(=O)N1CCN(c2ccccc2)CC1,-0.594
4,NC(=O)CN1CCOCCOCCN(CC(N)=O)CCOCCOCC1,0.22
5,Cc1nn(C(C)C(=O)N2CCc3ccccc32)c(C)c1[N+](=O)[O-] (centres undefined),-0.0522
6,CCN(CC)S(=O)(=O)c1ccc(C(=O)NCc2n[nH]c(=S)n2Cc2ccccc2)cc1,-0.285
7,CN(Cc1ccccc1)c1nc(N)c([N+](=O)[O-])c(NCc2ccccc2)n1,-0.101
8,COc1ccc(N/C(=C(/C(Cl)=C(Cl)Cl)[N+](=O)[O-])n2nnc3ccccc32)cc1,-0.744
9,COC(=O)COc1cccc(NC(=O)c2cccs2)c1,-0.153
10,Cc1ccccc1Cn1cc(S(=O)(=O)CC(=O)N2CCCCC2)c2ccccc21,0.628
11,N#Cc1c(Oc2ccc3ccccc3c2)sc(C(=O)c2ccccc2)c1N,0.028
12,CCOC(=O)c1sc(NC(=O)CSc2nnnn2-c2ccc(C)cc2C)nc1C,-0.499
13,CC(=O)N1CCc2cc(Br)cc(S(=O)(=O)NCCN3CCCCC3C)c21 (centres undefined),0.632
14,O=C(NCCC1=CCCCC1)C1CCN(Cc2cnn(-c3ccccc3)c2-n2cccc2)CC1,0.122
15,N#CCCN1CCN(S(=O)(=O)c2ccc3c(c2)OCCCO3)CC1,-0.473
16,CCn1cc(C(=O)N/N=C(/C)c2ccc(F)cc2)c(=O)c2cc(F)c(N3CCCC3)cc21,-0.438
17,CCC(NC(=O)Nc1ccc(O)cc1)(C(F)(F)F)C(F)(F)F,0.671
18,Cc1ccc2cccc(S(=O)(=O)NC3CCS(=O)(=O)C3)c2n1 (centres undefined),-0.155
19,CNC(=O)CSCc1cnn(-c2ccccc2)c1-n1cccc1,0.052
20,O=C(Nc1cc(C(F)(F)F)ccc1N1CCOCC1)c1cccnc1Cl,0.268
21,COc1ccc(CNC(=O)Nc2cccc(C(F)(F)F)c2)cc1OC,0.532
22,CCOc1ccc(N(CC(=O)NC2CCCC2)C(=O)CSc2nnc(COc3ccccc3)o2)cc1,-0.322

row,Compound,z-score
1,O=C(/C=C/c1ccc(Cl)cc1Cl)NC(=S)Nc1ccccn1,0.635
2,COc1cccc(C(C#N)N2CCOCC2)c1 (centres undefined),-0.0772
3,O=C1CC(c2ccccc2Cl)Cc2c1cnn2-c1nc2ccccc2s1 (centres undefined),0.242
4,Cc1nc2sc(C(c3ccco3)N3CCOCC3)c(O)n2n1 (centres undefined),0.165
5,Cc1cc(C)c2c(c1)SC1=NC(c3ccccc3)(C(F)(F)F)NC(=O)N12 (centres undefined),-0.482
6,Cn1nc(-c2ccccc2)c(-c2nc(-c3cccc(C(F)(F)F)c3)no2)c1Cl,0.362
7,CCOC(=O)c1ccccc1NC(=O)c1ccccc1NS(C)(=O)=O,-0.268
8,O=C(CSCc1ccc(Cl)c(Cl)c1)Nc1c[nH]c(=O)[nH]c1=O,-0.198
9,COc1ccc(Nc2nc(S(=O)(=O)c3ccc(C)cc3)c(Cl)s2)cc1,0.0796
10,CCOC(=O)C(C)n1cnc2sc(C)c(C)c2c1=O (centres undefined),-0.0783
11,CC(C)(C)c1cccc(Oc2nn[nH]n2)c1,-0.526
12,COCC(=O)N(C)c1nnc(-c2ccccn2)s1,0.142
13,CC(=O)N1CCc2cc(Br)cc(S(=O)(=O)N3CCCCCC3)c21,1.47
14,C=CCn1c(COc2ccccc2)nnc1SCC(=O)Nc1ccc2c(c1)OCCO2,-0.529
15,Cc1nc2ccc(C(=O)O)cc2c2c1CC(C)S2 (centres undefined),0.154
16,O=C(NCCc1cccc(Cl)c1)c1cc([N+](=O)[O-])ccc1Cl,-0.16
17,CC(=O)c1cc(C#N)c(Oc2ccccc2)nc1C,-0.109
18,COCCOC(=O)C1=C(C)NC(=O)NC1c1c(Cl)nc2ccccn2c1=O (centres undefined),0.0414
19,Cc1ccc(/C=N/n2cnc3sc(-c4ccccc4)cc3c2=O)o1,-0.579
20,O=S(=O)(Nc1nc(-c2sccc2Cl)cs1)c1cc(Cl)ccc1Cl,active: 3.41
21,CCCCC(=O)Nc1cccc(NC(=S)NC(=O)Cc2ccccc2)c1,-0.551
22,COc1ccc(-c2nnnn2C)cc1S(=O)(=O)NCCc1ccccc1,1.29

row,Compound,z-score
1,Cc1ccsc1/C=N/NC(=O)c1ccc2nc[nH]c2c1,-0.151
2,COc1ccc(C(=O)Nn2c(SCc3ccc([N+](=O)[O-])cc3)nc3ccccc3c2=O)cc1,0.0699
3,COc1ccc(OC)c(N2CC(O)=C(c3nc4ccccc4s3)C2=N)c1,-0.71
4,CC(=O)Nc1ccc(C(=O)N(C)c2ccccc2)cc1,-0.095
5,CCn1c(SCC(=O)Nc2ccc(S(N)(=O)=O)cc2)nnc1-c1cccc(OC)c1,0.0875
6,CCOC(=O)CN1C2=NCCN2c2ccccc21,-0.058
7,Cc1sc(NC(=O)C2CCCCC2C(=O)O)c(C(N)=O)c1-c1ccccc1 (centres undefined),-0.169
8,COCCn1cnc2c1c(=O)n(CC(=O)OCC(=O)NCC(F)(F)F)c(=O)n2Cc1ccccc1,-0.0742
9,Cc1cccc(-n2c(O)c(C=NC3CCS(=O)(=O)C3)c3ccccc3c2=O)c1 (centres undefined),0.139
10,COc1ccc(CC(=O)NCCN2CCCC2)cc1,-0.117
11,COc1cc(OC)cc(C(=O)Nc2ccccc2N2CCOCC2)c1,-1.56
12,NNC(=O)CN1C(c2ccc(Cl)cc2)=Nc2ccc(Br)cc2C1c1ccccc1 (centres undefined),-0.965
13,Cc1ccccc1OC(=O)C1C(c2ccccc2)C(C(=O)O)C1c1ccccc1 (centres undefined),0.107
14,CCOC(=O)CC1=C(C(=O)OCC)C(c2cccs2)C(C#N)=C(N)O1 (centres undefined),active: 3.6
15,COc1ccc(CCNC(=O)COC(=O)c2ccc(Br)o2)cc1OC,0.125
16,CC(C)CC1=NN(C(=O)c2cccnc2)C(O)(C(F)(F)F)C1 (centres undefined),-0.281
17,O=C(O)CSCC(=O)NCc1ccccc1,-0.247
18,COc1ccc(NC(C)C(=O)Nc2ccc(C#N)cc2)cc1Cl (centres undefined),-0.144
19,COc1ccc(CCNC(=O)c2nn(C)cc2Cl)cc1,0.0878
20,CC(C)(CNC(=O)/C=C/c1ccc(F)cc1)CNC(=O)/C=C/c1ccc(F)cc1,-0.186
21,COC(=O)c1cn(NC(=O)c2cc(OC)c(OC)c(OC)c2)c(=O)c2ccccc12,-0.119
